{"source": "the supplement of paper PMC8728848", "assay_in_all_cases": "glycan array binding signal (z-score within array); higher = stronger binding", "settings_in_all_cases": "glycan notation: IUPAC condensed, linker removed", "key": {"Gal(a1-4)GlcNAc": {"target": "Gal(a1-4)GlcNAc", "in_short": "(§1)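 Arrays were curated from the Consortium for Functional Glycomics database, 3228 in total, and kept only where the protein sequence was available. Binding is expressed as a within-array Z-score. This score was averaged across arrays of the same protein sequence at different concentrations or buffers and across linkers, and negative values can be read as non-binding.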"}, "Gal(a1-6)Glc": {"target": "Gal(a1-6)Glc", "in_short": "as §1"}, "Gal(b1-2)Gal": {"target": "Gal(b1-2)Gal", "in_short": "as §1"}, "Gal(b1-3)Gal": {"target": "Gal(b1-3)Gal", "in_short": "as §1"}, "Gal(b1-3)GalNAc": {"target": "Gal(b1-3)GalNAc", "in_short": "as §1"}, "[1]": {"target": "Gal(b1-3)GalNAc(b1-3)Gal(a1-4)Gal(b1-4)Glc", "in_short": "as §1"}, "[2]": {"target": "Gal(b1-3)GalNAc(b1-3)Gal(b1-4)Glc", "in_short": "as §1"}, "[3]": {"target": "Gal(b1-3)GalNAc(b1-3)Gal(b1-4)GlcNAc", "in_short": "as §1"}, "[4]": {"target": "Gal(b1-3)GalNAc(b1-4)Gal(b1-4)Glc", "in_short": "as §1"}, "[5]": {"target": "Gal(b1-3)GalNAc(b1-4)[Neu5Ac(a2-3)]Gal(b1-4)Glc", "in_short": "as §1"}, "[6]": {"target": "Gal(b1-3)[Fuc(a1-4)]GlcNAc", "in_short": "as §1"}, "[7]": {"target": "Gal(b1-3)[Fuc(a1-4)]GlcNAc(b1-3)Gal(b1-4)GlcNAc", "in_short": "as §1"}, "[8]": {"target": "Gal(b1-3)[Fuc(a1-4)]GlcNAc(b1-3)Gal(b1-4)[Fuc(a1-3)]GlcNAc", "in_short": "as §1"}, "[9]": {"target": "Gal(b1-3)[GlcNAc(b1-6)]GalNAc", "in_short": "as §1"}, "[10]": {"target": "Gal(b1-3)[GlcNAc(b1-6)]GlcNAc", "in_short": "as §1"}, "[11]": {"target": "Gal(b1-3)[Neu5Ac(a2-6)]GalNAc", "in_short": "as §1"}, "[12]": {"target": "Gal(b1-3)[Neu5Ac(a2-6)]GlcNAc", "in_short": "as §1"}, "[13]": {"target": "Gal(b1-3)[Neu5Ac(a2-6)]GlcNAc(a1-4)Gal(b1-4)Glc", "in_short": "as §1"}, "[14]": {"target": "Gal(b1-3)[Neu5Ac(b2-6)]GlcNAc", "in_short": "as §1"}, "[15]": {"target": "Gal(b1-4)GalNAc(a1-3)[Fuc(a1-2)]Gal(b1-4)GlcNAc", "in_short": "as §1"}, "[16]": {"target": "Gal(b1-4)GalNAc(b1-3)[Fuc(a1-2)]Gal(b1-4)GlcNAc", "in_short": "as §1"}, "Gal(b1-4)Glc": {"target": "Gal(b1-4)Glc", "in_short": "as §1"}, "Gal(b1-4)Glc6S": {"target": "Gal(b1-4)Glc6S", "in_short": "as §1"}, "Gal(b1-4)GlcNAc": {"target": "Gal(b1-4)GlcNAc", "in_short": "as §1"}, "[17]": {"target": "Gal(b1-4)GlcNAc(b1-2)Man(a1-3)[Gal(b1-4)GlcNAc(b1-2)Man(a1-6)]Man(b1-4)GlcNAc(b1-4)GlcNAc", "in_short": "as §1"}, "[18]": {"target": "Gal(b1-4)GlcNAc(b1-3)Gal(b1-4)Glc", "in_short": "as §1"}, "[19]": {"target": "Gal(b1-4)GlcNAc(b1-3)Gal(b1-4)GlcNAc", "in_short": "as §1"}, "[20]": {"target": "Gal(b1-4)GlcNAc(b1-3)Gal(b1-4)GlcNAc(b1-3)Gal(b1-4)GlcNAc", "in_short": "as §1"}, "[21]": {"target": "Gal(b1-4)GlcNAc(b1-3)Gal(b1-4)[Fuc(a1-3)]GlcNAc(b1-3)Gal(b1-4)[Fuc(a1-3)]GlcNAc", "in_short": "as §1"}, "[22]": {"target": "Gal(b1-4)GlcNAc(b1-3)GalNAc", "in_short": "as §1"}, "[23]": {"target": "Gal(b1-4)GlcNAc(b1-3)[Gal(b1-4)GlcNAc(b1-6)]GalNAc", "in_short": "as §1"}, "[24]": {"target": "Gal(b1-4)GlcNAc(b1-6)GalNAc", "in_short": "as §1"}, "[25]": {"target": "Gal(b1-4)GlcNAc(b1-6)[Gal(b1-3)]GalNAc", "in_short": "as §1"}, "[26]": {"target": "Gal(b1-4)GlcNAc(b1-6)[Gal(b1-3)]GlcNAc", "in_short": "as §1"}, "Gal3S(b1-3)GalNAc": {"target": "Gal3S(b1-3)GalNAc", "in_short": "as §1"}, "Gal3S(b1-3)GlcNAc": {"target": "Gal3S(b1-3)GlcNAc", "in_short": "as §1"}, "[27]": {"target": "Gal3S(b1-3)[Fuc(a1-4)]GlcNAc", "in_short": "as §1"}, "Gal3S(b1-4)Glc": {"target": "Gal3S(b1-4)Glc", "in_short": "as §1"}, "Gal3S(b1-4)Glc6S": {"target": "Gal3S(b1-4)Glc6S", "in_short": "as §1"}, "Gal3S(b1-4)GlcNAc": {"target": "Gal3S(b1-4)GlcNAc", "in_short": "as §1"}, "Gal3S(b1-4)GlcNAc6S": {"target": "Gal3S(b1-4)GlcNAc6S", "in_short": "as §1"}, "Gal3S6S(b1-4)GlcNAc": {"target": "Gal3S6S(b1-4)GlcNAc", "in_short": "as §1"}, "Gal3S6S(b1-4)GlcNAc6S": {"target": "Gal3S6S(b1-4)GlcNAc6S", "in_short": "as §1"}, "Gal4S(b1-4)GlcNAc": {"target": "Gal4S(b1-4)GlcNAc", "in_short": "as §1"}, "Gal4S6S(b1-4)GlcNAc": {"target": "Gal4S6S(b1-4)GlcNAc", "in_short": "as §1"}}, "note": "Some of the results follow."}
{"binder": "TbCVNHOb (Tuber borchii) (protein) GSHIGPYMSFYASSEDVRTIEEGGRTWLVGRARRADGSWQDIKLDLDNIIGNRDGHLTWGEQNFTQSASDIRFNFEGGSNVPVLRAKLRNAAGGEQESDLNLGERLTNNNGDLVFN", "values": [{"measurement": "glycan array binding signal (z-score)", "setting": "Gal(a1-4)GlcNAc", "value": -0.472}, {"measurement": "glycan array binding signal (z-score)", "setting": "Gal(a1-6)Glc", "value": 0.38}, {"measurement": "glycan array binding signal (z-score)", "setting": "Gal(b1-2)Gal", "value": -0.193}, {"measurement": "glycan array binding signal (z-score)", "setting": "Gal(b1-3)Gal", "value": -0.139}, {"measurement": "glycan array binding signal (z-score)", "setting": "Gal(b1-3)GalNAc", "value": -0.28}, {"measurement": "glycan array binding signal (z-score)", "setting": "[1]", "value": 0.331}, {"measurement": "glycan array binding signal (z-score)", "setting": "[2]", "value": 4.02}, {"measurement": "glycan array binding signal (z-score)", "setting": "[3]", "value": -0.539}, {"measurement": "glycan array binding signal (z-score)", "setting": "[4]", "value": -0.387}, {"measurement": "glycan array binding signal (z-score)", "setting": "[5]", "value": -0.12}, {"measurement": "glycan array binding signal (z-score)", "setting": "[6]", "value": -0.004}, {"measurement": "glycan array binding signal (z-score)", "setting": "[7]", "value": -0.231}, {"measurement": "glycan array binding signal (z-score)", "setting": "[8]", "value": -0.015}, {"measurement": "glycan array binding signal (z-score)", "setting": "[9]", "value": -0.315}, {"measurement": "glycan array binding signal (z-score)", "setting": "[10]", "value": -0.554}, {"measurement": "glycan array binding signal (z-score)", "setting": "[11]", "value": -0.305}, {"measurement": "glycan array binding signal (z-score)", "setting": "[12]", "value": -0.484}, {"measurement": "glycan array binding signal (z-score)", "setting": "[13]", "value": 4.83}, {"measurement": "glycan array binding signal (z-score)", "setting": "[14]", "value": -0.311}, {"measurement": "glycan array binding signal (z-score)", "setting": "[15]", "value": 1.04}, {"measurement": "glycan array binding signal (z-score)", "setting": "[16]", "value": -0.367}, {"measurement": "glycan array binding signal (z-score)", "setting": "Gal(b1-4)Glc", "value": -0.259}, {"measurement": "glycan array binding signal (z-score)", "setting": "Gal(b1-4)Glc6S", "value": 0.011}, {"measurement": "glycan array binding signal (z-score)", "setting": "Gal(b1-4)GlcNAc", "value": -0.364}, {"measurement": "glycan array binding signal (z-score)", "setting": "[17]", "value": -0.4}, {"measurement": "glycan array binding signal (z-score)", "setting": "[18]", "value": 2.59}, {"measurement": "glycan array binding signal (z-score)", "setting": "[19]", "value": -0.126}, {"measurement": "glycan array binding signal (z-score)", "setting": "[20]", "value": 0.516}, {"measurement": "glycan array binding signal (z-score)", "setting": "[21]", "value": -0.334}, {"measurement": "glycan array binding signal (z-score)", "setting": "[22]", "value": -0.383}, {"measurement": "glycan array binding signal (z-score)", "setting": "[23]", "value": -0.294}, {"measurement": "glycan array binding signal (z-score)", "setting": "[24]", "value": -0.561}, {"measurement": "glycan array binding signal (z-score)", "setting": "[25]", "value": -0.316}, {"measurement": "glycan array binding signal (z-score)", "setting": "[26]", "value": -0.568}, {"measurement": "glycan array binding signal (z-score)", "setting": "Gal3S(b1-3)GalNAc", "value": -0.531}, {"measurement": "glycan array binding signal (z-score)", "setting": "Gal3S(b1-3)GlcNAc", "value": -0.28}, {"measurement": "glycan array binding signal (z-score)", "setting": "[27]", "value": -0.55}, {"measurement": "glycan array binding signal (z-score)", "setting": "Gal3S(b1-4)Glc", "value": -0.289}, {"measurement": "glycan array binding signal (z-score)", "setting": "Gal3S(b1-4)Glc6S", "value": -0.244}, {"measurement": "glycan array binding signal (z-score)", "setting": "Gal3S(b1-4)GlcNAc", "value": -0.056}, {"measurement": "glycan array binding signal (z-score)", "setting": "Gal3S(b1-4)GlcNAc6S", "value": -0.44}, {"measurement": "glycan array binding signal (z-score)", "setting": "Gal3S6S(b1-4)GlcNAc", "value": -0.516}, {"measurement": "glycan array binding signal (z-score)", "setting": "Gal3S6S(b1-4)GlcNAc6S", "value": -0.486}, {"measurement": "glycan array binding signal (z-score)", "setting": "Gal4S(b1-4)GlcNAc", "value": -0.362}, {"measurement": "glycan array binding signal (z-score)", "setting": "Gal4S6S(b1-4)GlcNAc", "value": 0.433}]}
